{
  "source": "paper PMC13083723",
  "about": "(Patterns, 2026)",
  "note": "The whole screen tested about 5,400 compounds, of which about 190 (3.5%) showed an effect of 50% or more. The list shows a part of the results.",
  "data": [
    {"tested_on": "Vero-E6", "test": "primary screen, phospholipidosis by LipidTOX staining; higher = more effect of the substance", "details": "10 µM", "outline": "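Drug-induced phospholipidosis detected with HCS LipidTOX Red reagent in Vero-E6 cells. Compounds tested at 10 μM, with amiodarone (10 μM) as positive control and DMSO (0.1 v/v %) as vehicle.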", "units": {"result_ITMP": "%"}, "values": [
      {"smiles": "NC1=N[C@@](c2cccc(-c3cncnc3)c2)(c2ccnc(C(F)F)c2)c2cccc(F)c21", "result_ITMP": 4.11},
      {"smiles": "CC(=O)Nc1ccc(C(=O)O)cc1", "result_ITMP": -3.42},
      {"smiles": "Cc1ccccc1C(c1ccccc1C)N1C2CCC1CC(O)(c1ccccc1)C2", "note": "(centres unmarked)", "result_ITMP": -2.82},
      {"smiles": "O=C(O)c1cccnc1C(=O)O", "result_ITMP": -3.37},
      {"smiles": "C(#Cc1nc2ncccc2nc1OCCN1CCCC1)c1ccccc1", "result_ITMP": 8.41},
      {"smiles": "CCN1CCC[C@H]1CNC(=O)c1c(O)c(Cl)cc(Cl)c1OC", "result_ITMP": -1.14},
      {"smiles": "O=C(O)c1ccccc1", "result_ITMP": -7.76},
      {"smiles": "CN[C@@H](C)C(=O)N[C@H](C(=O)N1CCC[C@H]1C(=O)Nc1sc(-c2ncco2)nc1-c1ccccc1)C1CCCCC1", "result_ITMP": 1.46},
      {"smiles": "CC[C@@H]([C@H](C)O)n1ncn(-c2ccc(N3CCN(c4ccc(OC[C@@H]5CO[C@@](Cn6cncn6)(c6ccc(F)cc6F)C5)cc4)CC3)cc2)c1=O", "result_ITMP": 19.4},
      {"smiles": "NCc1ccc(S(N)(=O)=O)cc1", "result_ITMP": -2.52},
      {"smiles": "CNC(C)(C)Cc1ccccc1", "result_ITMP": -6.23},
      {"smiles": "CCOP(=S)(OCC)Oc1cc(C)nc(C(C)C)n1", "result_ITMP": 2.48},
      {"smiles": "O=c1[nH]nc(Sc2ncc([N+](=O)[O-])s2)n1-c1ccc2c(c1)OCCO2", "result_ITMP": -5.34},
      {"smiles": "CC(C)[C@@H](CS(=O)(=O)C(C)C)N1C(=O)[C@@](C)(CC(=O)O)C[C@H](c2cccc(Cl)c2)[C@H]1c1ccc(Cl)cc1", "result_ITMP": -0.58},
      {"smiles": "CCN(CCCOc1ccc2c(Nc3cc(CC(=O)Nc4cccc(F)c4)[nH]n3)ncnc2c1)CCOP(=O)(O)O", "result_ITMP": 0.14},
      {"smiles": "CC#C[C@@H](CC(=O)[O-])c1ccc(OCc2cccc(-c3ccc(C(F)(F)F)cc3)c2)cc1", "result_ITMP": 2.55},
      {"smiles": "c1ccc(-c2n[nH]c3c2oc2ccccc23)cc1", "result_ITMP": -1.91},
      {"smiles": "Cn1cc(-c2ccc(S(=O)(=O)n3ccc(/C=C/C(=O)Nc4ccccc4N)c3)cc2)cn1", "result_ITMP": 30.1},
      {"smiles": "Cc1ccccc1N1CCN(S(=O)(=O)CC23CCC(C[C@@H]2NC(=O)[C@@H](N)CCS(C)(=O)=O)C3(C)C)CC1", "note": "(some centres unmarked)", "result_ITMP": -1.46},
      {"smiles": "c1ccc2oc(C3=NCCN3)cc2c1", "result_ITMP": 19.4},
      {"smiles": "CCc1oc2ccccc2c1C(=O)c1cc(Br)c(O)c(Br)c1", "result_ITMP": 0.74},
      {"smiles": "CC/C(=C(\\c1ccccc1)c1ccc(OCCN(C)C)cc1)c1ccccc1", "result_ITMP": 49.4},
      {"smiles": "O=C([O-])c1cc(=O)c2c(OCC(O)COc3cccc4oc(C(=O)[O-])cc(=O)c34)cccc2o1", "result_ITMP": -1.95},
      {"smiles": "C=C(c1ccc(C(=O)O)cc1)c1cc2c(cc1C)C(C)(C)CCC2(C)C", "result_ITMP": -6.92},
      {"smiles": "CN(C)CCCCC(=O)Nc1ccc(NC(=S)NC(=O)c2ccc(C(C)(C)C)cc2)cc1", "result_ITMP": 147},
      {"smiles": "CC(C)(C)NCC(O)c1cc(O)cc(O)c1", "note": "(centres unmarked)", "result_ITMP": -0.5},
      {"smiles": "NS(=O)(=O)c1cc2c(cc1Cl)NC(CC1CCCC1)NS2(=O)=O", "note": "(centres unmarked)", "result_ITMP": -8.66},
      {"smiles": "CC[N+](CC)(CC)CCOc1cccc(OCC[N+](CC)(CC)CC)c1OCC[N+](CC)(CC)CC", "result_ITMP": -0.66},
      {"smiles": "CN1C(=O)N(c2ccc(C#N)c(C(F)(F)F)c2)C(=O)[C@@]1(CO)c1ccccc1", "result_ITMP": -2.11},
      {"smiles": "COc1ccc2[nH]c3nnc(C)c-3c(NCCOCCO)c2c1", "result_ITMP": -1.31},
      {"smiles": "CC(C)(C)S(=O)(=O)N[C@H]1CC[C@H](C(=O)Nc2ccc(C(F)(F)F)cn2)CC1", "result_ITMP": 1},
      {"smiles": "O=C(O)CSCC(=O)NC1CCSC1=O", "note": "(centres unmarked)", "result_ITMP": -1.76},
      {"smiles": "COc1ccc(CCN(C)CCCOc2ccc(S(=O)(=O)c3c(C(C)C)c4ccccc4n3C)cc2)cc1OC", "result_ITMP": 84.7},
      {"smiles": "CCCCCCN(CCCCCC)C(=O)Cc1c(-c2ccc(Cl)cc2)[nH]c2ccc(Cl)cc12", "result_ITMP": 8.5},
      {"smiles": "C/C1=C/C[C@@H](/C(C)=C/c2csc(C)n2)OC(=O)C[C@H](O)C(C)(C)C(=O)[C@H](C)[C@@H](O)[C@@H](C)CCC1", "result_ITMP": 1.1},
      {"smiles": "O=C1c2cccc3c2[C@H](CCC3)CN1[C@@H]1CN2CCC1CC2", "result_ITMP": -0.94},
      {"smiles": "NCC[C@H](O)C(=O)N[C@@H]1C[C@H](N)[C@@H](O[C@H]2O[C@H](CN)[C@@H](O)[C@H](O)[C@H]2O)[C@H](O)[C@H]1O[C@H]1O[C@H](CO)[C@@H](O)[C@H](N)[C@H]1O", "result_ITMP": 0.68},
      {"smiles": "NC(C(=O)O)c1cc(O)cc(O)c1", "note": "(centres unmarked)", "result_ITMP": -1.39},
      {"smiles": "COC1/C=C/OC2(C)Oc3c(C)c(O)c4c(O)c(c(/C=N/N=C/N5CCCCC5)c(O)c4c3C2=O)NC(=O)/C(C)=C\\C=C\\C(C)C(O)C(C)C(O)C(C)C(OC(C)=O)C1C", "note": "(centres unmarked)", "result_ITMP": -4.56},
      {"smiles": "CN(C/C=C/C#CC(C)(C)C)Cc1cccc2ccccc12", "result_ITMP": 6.44},
      {"smiles": "CN1CCN(c2ccc(OC(F)(F)F)c(Nc3ncc4c(n3)-c3c(c(C(N)=O)nn3CCO)CC4)c2)CC1", "result_ITMP": -0.49},
      {"smiles": "O=c1[nH]cnc2c1ncn2[C@H]1CC[C@@H](CO)O1", "result_ITMP": -8.37},
      {"smiles": "Fc1ccc([C@@H]2CCNC[C@H]2COc2ccc3c(c2)OCO3)cc1", "result_ITMP": 13.8},
      {"smiles": "NC(CO)C(=O)NNCc1ccc(O)c(O)c1O", "note": "(centres unmarked)", "result_ITMP": 0.53},
      {"smiles": "CCCCCCCCCCC(CO)CCCCCCCC", "note": "(centres unmarked)", "result_ITMP": -5.72},
      {"smiles": "CC(=O)c1ccc2c(c1)[C@H](NC(=O)c1ccc(F)c(Cl)c1)[C@H](O)C(C)(C)O2", "result_ITMP": -1},
      {"smiles": "Cc1cccc(C(=O)NCN2CCN(c3ccccc3C#N)CC2)c1", "result_ITMP": -0.58},
      {"smiles": "CN(C)CCCN1c2ccccc2CCc2ccccc21", "result_ITMP": 23.6},
      {"smiles": "CCCC(=O)OCOC(=O)C1=C(C)NC(C)=C(C(=O)OC)C1c1cccc(Cl)c1Cl", "note": "(centres unmarked)", "result_ITMP": -1.03},
      {"smiles": "CCN(CC)CCCCN1c2ccccc2Oc2ccc(Cl)cc21", "result_ITMP": 69.7},
      {"smiles": "CC12CCC3C(=CCc4cc(O)ccc43)C1CCC2=O", "note": "(centres unmarked)", "result_ITMP": 10.4},
      {"smiles": "CN(C)C(=O)Oc1cccc([N+](C)(C)C)c1", "result_ITMP": -3.43},
      {"smiles": "FC(F)(F)c1cccc(-c2noc(-c3cc(-c4ccccc4)c(C(F)(F)F)s3)n2)c1", "result_ITMP": -1.95},
      {"smiles": "CN1CCC(OC(c2ccccc2)c2ccccc2)CC1", "result_ITMP": 26.1},
      {"smiles": "CC(C)(C)OC(=O)c1ncn2c1[C@@H]1CCCN1C(=O)c1c(Br)cccc1-2", "result_ITMP": -0.94},
      {"smiles": "CCOC(=O)[C@H](CCc1ccccc1)N[C@@H](C)C(=O)N1Cc2cc(OC)c(OC)cc2C[C@H]1C(=O)O", "result_ITMP": 0.49}
    ]}
  ]
}
